Assay results: US20240189439A1
Numbering of substitutions follows the chain as printed. Names and notes keep the numbering of the source.

Biological target: human PMEL17 (human), P40967
Assay: cell-based or functional assay

Chain of human PMEL17 (human), P40967 (P40967 25-661): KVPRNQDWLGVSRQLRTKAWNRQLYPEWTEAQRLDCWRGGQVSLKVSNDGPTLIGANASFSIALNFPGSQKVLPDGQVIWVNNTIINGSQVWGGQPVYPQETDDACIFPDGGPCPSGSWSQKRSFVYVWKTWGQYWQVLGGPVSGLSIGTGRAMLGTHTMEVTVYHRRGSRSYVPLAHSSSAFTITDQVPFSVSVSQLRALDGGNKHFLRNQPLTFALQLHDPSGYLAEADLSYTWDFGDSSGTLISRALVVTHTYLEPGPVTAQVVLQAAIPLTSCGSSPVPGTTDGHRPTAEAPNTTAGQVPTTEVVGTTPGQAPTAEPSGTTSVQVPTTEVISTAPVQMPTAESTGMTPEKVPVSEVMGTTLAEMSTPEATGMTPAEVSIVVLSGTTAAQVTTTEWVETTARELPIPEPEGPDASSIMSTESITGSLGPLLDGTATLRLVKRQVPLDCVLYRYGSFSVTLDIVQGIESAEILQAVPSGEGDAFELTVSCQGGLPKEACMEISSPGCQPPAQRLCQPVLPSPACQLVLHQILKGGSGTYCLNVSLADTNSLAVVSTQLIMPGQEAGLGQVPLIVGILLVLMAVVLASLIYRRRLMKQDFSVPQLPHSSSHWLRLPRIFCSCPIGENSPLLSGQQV

B1: G1-3J-DAR4-(B1) (antibody, human IgG1, lambda)
heavy: QVQLVQSGAEVKKPGSSVKVSCKASGGTFSDYAITWVRQAPGQGLEWMGGIIPIFGTANYAQKFQGRVTITADESTSTAYMELSSLRSEDTAVYYCAREGGLLTDISYSRYWFAYWGQGTLVTVSSASTKGPSVFPLAPSSKSTSGGTAALGCLVKDYFPCPVTVSWNSGALTSGVHTFPAVLQSSGLYSLSSVVTVPSSSLGTQTYICNVNHKPSNTKVDKRV[in this place human IgG1 Fc with S375C (EU numbers)]
light: SYELTQPLSVSVALGQTARITCSGDALRDKFVYWYQQKPGQAPVLVIYDDNNRPSGIPERFSGSNSGNTATLTISRAQAGDEADYYCQSWDHSYSLVVFGGGTKLTVLGQPKAAPSVTLFPPSSEELQANKATLVCLISDFYPGAVTVAWKADSSPVKAGVETTTPSKQSNNKYAASSYLSLTPEQWKSHRSYSCQVTHEGSTVEKTVAPTECS
modifications: here or on the partner: linker-drug (B1) on the engineered cysteines E152C and S375C (EU numbering), DAR4
Work on B1 yielded a GI50, cell proliferation (resazurin-based viability assay), 92.1 cells of 0.85 nM and a GI50, cell proliferation (resazurin-based viability assay), MP41 cells of 0.582 nM.

B2: G1-3R-DAR4-(B1) (antibody, human IgG1, lambda)
heavy: B1 heavy
light: B1 light with L8P, A13S, L14P, R19S, A42S, R76G, A77T, G80M
modifications: here or on the partner: linker-drug (B1) on the engineered cysteines E152C and S375C (EU numbering), DAR4
B2 was tested, and the GI50, cell proliferation (resazurin-based viability assay), 92.1 cells was 0.811 nM and the GI50, cell proliferation (resazurin-based viability assay), MP41 cells was 0.654 nM.

B3: Anti-PMEL17G1_E152C_S375C_(B1) (antibody, human IgG1, lambda)
heavy: B1 heavy
light: B1 light with S1D, Y2I, L8P, A13S, L14P, R19S, R76G, A77T, G80E
modifications: here or on the partner: linker-drug (B1) on the engineered cysteines E152C and S375C (EU numbering), DAR4
B3 showed a GI50, cell proliferation (resazurin-based viability assay), 92.1 cells of 0.722 nM and a GI50, cell proliferation (resazurin-based viability assay), MP41 cells of 0.563 nM.
